Patent US20240190987A1, “Engineered EpCam Binding Antibodies” (TigaTX, priority 2021, published 2024)

Test: Differential scanning fluorimetry (DSF) melting temperature
Type: physicochemical
Settings: LS2A R4 variants (Table 21)
Procedure: DSF was performed on a LC480 Lightcycler Instrument II (Roche). Purified recombinant protein was diluted to 5 μM in DSF buffer (PBS, pH 7.4, Sypro Orange 5×) with small molecule (10 μM VTX) or vehicle (0.05% DMSO) and then heated with a temperature gradient (0.01° C./s) from 25 to 95° C. Data were continuously acquired at ˜465 nm (excitation) and ˜580 nm (emission). Data was analyzed to generate first derivative curves in which the curve maximum was reported as the melting temperature of the protein.

Molecule	TM (° C.) [°C]
Ab1101: CT heterodimeric binding protein, FIG. 9C (antibody, REGION 1..445: note = Ab1101 Knob HC; REGION 1..215: note = Ab1101 Knob LC; REGION 1..471: note = Ab1101 Hole HC) heavy 1: EVQLVESGGGLVQPGGSLRLSCAASGFTFSNYWMNWVRQAPGKGLEWVAQIRVKSENFATHYADSVKGRFTISRDDSKSTVYLQMNSLRAEDTAVYYCTLYDGFSWGQGTLVTVSSASTKGPSVFPLAPSSKSTSGGTAALGCLVKDYFPEPVTVSWNSGALTSGVHTFPAVLQSSGLYSLSSVVTVPSSSLGTQTYICNVNHKPSNTKVDKKV[human IgG1 Fc with changes left out] light: DIQMTQSPSSLSASVGDRVTITCSASSSVSSGNFHWYQQKPGKAPKLLIYRTSNLASGVPSRFSGSGSGTDYTLTISSLQPEDFATYYCQQWSGYPYTFGQGTKVEIKRTVAAPSVFIFPPSDEQLKSGTASVVCLLNNFYPREAKVQWKVDNALQSGNSQESVTEQDSKDSTYSLSSTLTLSKADYEKHKVYACEVTHQGLSSPVTKSFNRGEC heavy 2: QVQLVQSGAEVKKPGASVKVSCKASGYTFTSYWMHWVRQHPGQGLEWMGMIAPNSGGTNYAQKFQGRVTMTRDTSTSTVYMELSSLRSEDTAVYYCAMGDYVSRDYWGQGTLVTVSSGGGGSGGGGSGGGGSEIVLTQSPGTLSLSPGERATLSCRASSSVSSSYLHWYQQKPGQAPRLLIYSTSSRATGIPDRFSGSGSGTDFTLTISRLEPEDFAVYYCQQYSGYQFTFGQGTKLEIKGGGGS[human IgG1 Fc with changes left out]	54.9
Ab1102: LS2A indinavir binding domain, FIGS. 5A-5E (protein) scFv-Fc: QVQLVQSGAEVKKPGASVKVSCKASGYTFTSYWMHWVRQHPGQGLEWMGMIHPNSGGTNYAQKFQGRVTMTRDTSTSTVYMELSSLRSEDTAVYYCAMGDYVSADYWGQGTLVTVSSGGGGSGGGGSGGGGSEIVLTQSPGTLSLSPGERATLSCRASSSVSSSYLHWYQQKPGQAPRLLIYSTSSRATGIPDRFSGSGSGTDFTLTISRLEPEDFAVYYCQQYSGYQFTFGQGTKLEIKGGGGS[human IgG1 Fc with changes left out] light: DIQMTQSPSSLSASVGDRVTITCSASSSVSSGNFHWYQQKPGKAPKLLIYRTSNLASGVPSRFSGSGSGTDYTLTISSLQPEDFATYYCQQWSGYPYTFGQGTKVEIKRTVAAPSVFIFPPSDEQLKSGTASVVCLLNNFYPREAKVQWKVDNALQSGNSQESVTEQDSKDSTYSLSSTLTLSKADYEKHKVYACEVTHQGLSSPVTKSFNRGEC heavy: EVQLVESGGGLVQPGGSLRLSCAASGFTFSNYWMNWVRQAPGKGLEWVAQIRVKSENFATHYADSVKGRFTISRDDSKSTVYLQMNSLRAEDTAVYYCTLYDGFSWGQGTLVTVSSASTKGPSVFPLAPSSKSTSGGTAALGCLVKDYFPEPVTVSWNSGALTSGVHTFPAVLQSSGLYSLSSVVTVPSSSLGTQTYICNVNHKPSNTKVDKKV[human IgG1 Fc with changes left out]	65.4
Ab1104: LS2A indinavir binding domain, FIGS. 5A-5E (protein) scFv-Fc: QVQLVQSGAEVKKPGASVKVSCKASGYTFTSYWMHWVRQHPGQGLEWMGMIHPSSGGTNYAQKFQGRVTMTRDTSTSTVYMELSSLRSEDTAVYYCAMGDYVSRDYWGQGTLVTVSSGGGGSGGGGSGGGGSEIVLTQSPGTLSLSPGERATLSCRASSSVSSSYLHWYQQKPGQAPRLLIYSTSSRATGIPDRFSGSGSGTDFTLTISRLEPEDFAVYYCQQYSGYQFTFGQGTKLEIKGGGGS[human IgG1 Fc with changes left out] light: DIQMTQSPSSLSASVGDRVTITCSASSSVSSGNFHWYQQKPGKAPKLLIYRTSNLASGVPSRFSGSGSGTDYTLTISSLQPEDFATYYCQQWSGYPYTFGQGTKVEIKRTVAAPSVFIFPPSDEQLKSGTASVVCLLNNFYPREAKVQWKVDNALQSGNSQESVTEQDSKDSTYSLSSTLTLSKADYEKHKVYACEVTHQGLSSPVTKSFNRGEC heavy: EVQLVESGGGLVQPGGSLRLSCAASGFTFSNYWMNWVRQAPGKGLEWVAQIRVKSENFATHYADSVKGRFTISRDDSKSTVYLQMNSLRAEDTAVYYCTLYDGFSWGQGTLVTVSSASTKGPSVFPLAPSSKSTSGGTAALGCLVKDYFPEPVTVSWNSGALTSGVHTFPAVLQSSGLYSLSSVVTVPSSSLGTQTYICNVNHKPSNTKVDKKV[human IgG1 Fc with changes left out]	59.2
Ab1111: LS2A indinavir binding domain, FIGS. 5A-5E (protein) scFv-Fc: QVQLVQSGAEVKKPGASVKVSCKASGYTFTSYWMHWVRQHPGQGLEWMGMIHPNSGGTNYAQKFQGRVTMTRDTSTSTVYMELSSLRSEDTAVYYCAMADYVSRDYWGQGTLVTVSSGGGGSGGGGSGGGGSEIVLTQSPGTLSLSPGERATLSCRASSSVSSSYLHWYQQKPGQAPRLLIYSTSSRATGIPDRFSGSGSGTDFTLTISRLEPEDFAVYYCQQYSGYQFTFGQGTKLEIKGGGGS[human IgG1 Fc with changes left out] light: DIQMTQSPSSLSASVGDRVTITCSASSSVSSGNFHWYQQKPGKAPKLLIYRTSNLASGVPSRFSGSGSGTDYTLTISSLQPEDFATYYCQQWSGYPYTFGQGTKVEIKRTVAAPSVFIFPPSDEQLKSGTASVVCLLNNFYPREAKVQWKVDNALQSGNSQESVTEQDSKDSTYSLSSTLTLSKADYEKHKVYACEVTHQGLSSPVTKSFNRGEC heavy: EVQLVESGGGLVQPGGSLRLSCAASGFTFSNYWMNWVRQAPGKGLEWVAQIRVKSENFATHYADSVKGRFTISRDDSKSTVYLQMNSLRAEDTAVYYCTLYDGFSWGQGTLVTVSSASTKGPSVFPLAPSSKSTSGGTAALGCLVKDYFPEPVTVSWNSGALTSGVHTFPAVLQSSGLYSLSSVVTVPSSSLGTQTYICNVNHKPSNTKVDKKV[human IgG1 Fc with changes left out]	56.9
Ab1114: LS2A indinavir binding domain, FIGS. 5A-5E (protein) scFv-Fc: QVQLVQSGAEVKKPGASVKVSCKASGYTFTSYWMHWVRQHPGQGLEWMGMIHPNSGGTNYAQKFQGRVTMTRDTSTSTVYMELSSLRSEDTAVYYCAMGDYASRDYWGQGTLVTVSSGGGGSGGGGSGGGGSEIVLTQSPGTLSLSPGERATLSCRASSSVSSSYLHWYQQKPGQAPRLLIYSTSSRATGIPDRFSGSGSGTDFTLTISRLEPEDFAVYYCQQYSGYQFTFGQGTKLEIKGGGGS[human IgG1 Fc with changes left out] light: DIQMTQSPSSLSASVGDRVTITCSASSSVSSGNFHWYQQKPGKAPKLLIYRTSNLASGVPSRFSGSGSGTDYTLTISSLQPEDFATYYCQQWSGYPYTFGQGTKVEIKRTVAAPSVFIFPPSDEQLKSGTASVVCLLNNFYPREAKVQWKVDNALQSGNSQESVTEQDSKDSTYSLSSTLTLSKADYEKHKVYACEVTHQGLSSPVTKSFNRGEC heavy: EVQLVESGGGLVQPGGSLRLSCAASGFTFSNYWMNWVRQAPGKGLEWVAQIRVKSENFATHYADSVKGRFTISRDDSKSTVYLQMNSLRAEDTAVYYCTLYDGFSWGQGTLVTVSSASTKGPSVFPLAPSSKSTSGGTAALGCLVKDYFPEPVTVSWNSGALTSGVHTFPAVLQSSGLYSLSSVVTVPSSSLGTQTYICNVNHKPSNTKVDKKV[human IgG1 Fc with changes left out]	59.9
